Measurements taken from the RNAGym collection of RNA variant scans (doi:10.7554/elife.90254).
The source gives no read counts; variants with many changes may rest on few reads.

B1: LINE1-mini (parent)
chain: GGCAGAGCUCAACACAGCGUGGCAAAGUGGCUGUGGCUAGACUGCC

Variants of: B1
Experiment: self-cleavage, relative activity (ratio to wild type); higher = more cleavage; in vitro, sequencing; the parent is a self-cleaving ribozyme

Row | Variant | self-cleavage
1 | G30A C31G G35U | 0.01
2 | C10A C15U U32C | 0.01
3 | A16U G33U C46A | 0.05
4 | A6G A25G G33U C42G | 0.01
5 | A4G U9A C10G A14U C18A G33C U38A | 0
6 | U9G G22U G44C | 0.18
7 | G5U G22A C45G | 0.03
8 | G22A A25G U34A C37A G40C G44C | 0.04
9 | A25U U38A C45G | 0.22
10 | A16G A25C C46U | 0.32
11 | G2C U9C C18G | 0.07
12 | A4U A11G A12G U32A | 0.02
13 | C15U G29C C31A A39G | 0.3
14 | A4U C8G U9G A11C C15A G21A G27U G33A | 0.01
15 | G2U U20A G33A U38C C42A | 0
16 | G2A A14C C15U G36U | 0.03
17 | U20C G27C C31G | 0.02
18 | A4G C18A C23U G36U | 0.01
19 | U20G G40U A41C | 0.12
20 | U9C U34G C37U | 0.02
21 | C13U G17U G27C | 0.07

Row | Variant | self-cleavage
22 | G5C G29C G30A | 0.06
23 | C8A C10U A11U | 0.01
24 | A6U A12U C13U C15G | 0.06
25 | A6U C42U C46A | 0.03
26 | G1U C8A A14U G22A A26U U38A G44A C46A | 0.04
27 | G7U C15G C42A U43A | 0.13
28 | C8G G19U C31G | 0.11
29 | G27C G36U U43G G44U | 0.01
30 | A6C A14U C18U U32A U38A | 0.18
31 | C15A A39C G44A | 0.04
32 | C10G C15G U20A U34A A39U | 0.02
33 | A25C C31U G33A | 0.04
34 | A4U C18U C45U | 0.06
35 | A16G G44U C45U | 0
36 | C18G U32A A39U | 0.01
37 | C10G C13A U34A | 0.01
38 | G7C C13G U20G U32C C42A | 0.02
39 | A11G C18A G22A G44U | 0.01
40 | A6U U20C G35U C37G | 0.01
41 | U9G C31A A39C | 0.03
42 | G22C G30C C37U | 0.02

Row | Variant | self-cleavage
43 | U9A C10A A25G C31G G33A G36U A39U G44U | 0.02
44 | G2C C23A G33U | 0.1
45 | G5A A16G G44U | 0.03
46 | G1U U9G U20G C42A | 0.03
47 | A14C C18U A26C | 0.19
48 | U20G U32G G35C | 0.01
49 | A4C G21A A24C G30A | 0.03
50 | G2C C8U C13U U28G | 0.13
51 | A12G C23U G30C C42A | 0
52 | G30A C31A G44U | 0
53 | A4U C10G C23G U34A | 0.02
54 | G1A U28A G30U | 0.25
55 | A6G C18A G22U | 0.15
56 | C3U G40U C45A C46U | 0.15
57 | C23G G27C G40U | 0.06
58 | G2A G36U C42A | 0.04
59 | C8U U38G C42U | 0.05
60 | C3U C13A G30U | 0.13
61 | A11U C18A C46A | 0
62 | G19A C23U G36C C37A | 0.13
63 | A4U A16U G44U | 0

Row | Variant | self-cleavage
64 | C15U C23U G27U | 2.71
65 | A16G G33U G35A U38C C46G | 0
66 | A11G A12G U32C | 0
67 | A6G U9G C37G C46G | 0.05
68 | U9C G19U C23G G30A | 0.02
69 | G2A C18A C31U G36C C37A | 0.01
70 | A12U G29U U32A | 0.31
71 | A16U G33U C37A | 0
72 | G1A C3U G5U A12C C46A | 0.12
73 | G7A C8U U9G C10G C18U G22A G30A | 0.01
74 | A6G C13A G30U U34A C46A | 0
75 | A4G G7U A14G A16G A24U G30C G33C U34G | 0.06
76 | G5U G19C G21U U32A A41G | 0.01
77 | A4U G5U G17A G21A U34A U38C | 0.02
78 | U28G C31G G40C C46A | 0.03
79 | A6G G19U G22C | 0.08
80 | C3G U9A A25U C37G G44C C46U | 0.02
81 | C10G G30U C31U C37U | 0
82 | G7C C13U U28A C45A | 0.06
83 | A14U G19U C23U | 0.86
84 | A11C A24C C31A U38G | 0
